# From PubChem BioAssay AID1768 (National Center for Advancing Translational Sciences (NCATS), 2009)
# Screen size: about 270,000 compounds; about 620 (0.23%) were called active. Inconclusive results, whose numbers are uncertain, are shown with a selection of clear calls. Calls come from the whole dose curve; as a rule, active = well fitted inhibition curve with a large enough effect in the polarisation, with a control signal flat (not every such curve was filed as active); inconclusive = small, poorly fitted or top-dose-only effect, or effect the other way, or a change in a side signal; inactive = no such curve, though single readings can be large or run the other way; the % refers to the polarisation. Potencies of inconclusive entries are doubtful fits and often do not repeat. A note “side channel” means that the fit belongs to a control or component signal, not to the main read-out.
# Molecular target: Menin (Homo sapiens) (UniProt O00255)
# Chain of UniProt O00255 (O00255 whole entry, looked up): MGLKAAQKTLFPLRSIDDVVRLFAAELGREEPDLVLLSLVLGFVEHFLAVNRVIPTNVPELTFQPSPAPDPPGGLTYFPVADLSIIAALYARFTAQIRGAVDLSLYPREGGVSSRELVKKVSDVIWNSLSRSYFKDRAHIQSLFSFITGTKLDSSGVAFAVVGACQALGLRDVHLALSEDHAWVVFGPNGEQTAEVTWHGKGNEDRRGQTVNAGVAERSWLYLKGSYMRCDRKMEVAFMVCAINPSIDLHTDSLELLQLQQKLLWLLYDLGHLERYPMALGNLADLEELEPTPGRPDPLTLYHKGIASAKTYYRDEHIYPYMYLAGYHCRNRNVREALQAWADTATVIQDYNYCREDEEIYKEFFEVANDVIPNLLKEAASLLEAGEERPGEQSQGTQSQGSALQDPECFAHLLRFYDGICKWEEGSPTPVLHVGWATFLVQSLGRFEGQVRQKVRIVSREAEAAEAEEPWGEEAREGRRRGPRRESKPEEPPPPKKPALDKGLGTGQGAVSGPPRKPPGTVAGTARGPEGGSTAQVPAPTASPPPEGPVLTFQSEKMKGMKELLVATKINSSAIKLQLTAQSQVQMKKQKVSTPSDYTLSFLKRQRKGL
# Experiment: qHTS Assay for Inhibitors Targeting the Menin-MLL Interaction in MLL Related Leukemias: Competition With Texas Red Labeled MLL-derived Mutant Peptide
# Details: fluorescence polarization; series mostly up to 61.6 µM
# Potency is the fitted concentration of half-maximal effect; tags give direction and shape of the fitted curve or compound fluorescence and quenching.
row,SMILES,Potency
1,COc1ccccc1NS(=O)(=O)c1ccc2c(c1)CCN2C(=O)CCC(=O)O,"inconclusive: 28.2 µM [quencher, side channel, partial curve]"
2,O=C(NCCN1CCCCC1)Nc1ccccc1F,"inconclusive: 0.631 µM [inhibitor, full curve, poor fit]"
3,CCOC(=O)c1sc(NC(=O)c2ccco2)nc1-c1ccccc1,"inconclusive: 12.6 µM [quencher, side channel, partial curve]"
4,Cc1cc(OCC(O)CN2C(C)CCCC2C)ccc1C(C)C (configuration not stated),"inconclusive: 2.82 µM [fluorescent, side channel, full curve]"
5,O=C(N/N=C/c1ccc([N+](=O)[O-])cc1)c1ccc(COc2ccccc2-c2ccccc2)cc1,"inconclusive: 5.62 µM [quencher, side channel, partial curve]"
6,O=C(CCCNC(=O)/C(=C/c1ccc(Br)cc1)NC(=O)c1ccccc1)OCc1ccccc1,inactive
7,Cc1ccc(S(=O)(=O)Nc2ccc(Br)cc2/C=N/n2cnnc2)cc1,"inconclusive: 35.5 µM [quencher, side channel, single point]"
8,CCOC(=O)c1nc(NCc2ccccc2)sc1C,"inconclusive: 0.708 µM [inhibitor, full curve, poor fit]"
9,COc1ccccc1CNCC(c1ccccc1)c1ccccc1,"inconclusive: 15.8 µM [fluorescent, side channel, partial curve, poor fit]"
10,CC(=O)Nc1cccc(OCCCOc2ccc([N+](=O)[O-])cc2)c1,"inconclusive: 31.6 µM [fluorescent, side channel, single point]"
11,C=CCN(C(=O)CCC(=O)Nc1cc(C)on1)C(C(=O)NC1CCCC1)c1ccc(Cl)cc1 (configuration not stated),"inconclusive: 15.8 µM [inhibitor, partial curve]"
12,CC1=NOC(=O)/C1=C\c1ccc(-c2cccc(Cl)c2)o1,"inconclusive: 22.4 µM [quencher, side channel, partial curve]"
13,O=C(Nc1cc(S(=O)(=O)Nc2ccc(Cl)cc2)ccc1N1CCCCC1)c1ccc(F)cc1,"inconclusive: 35.5 µM [inhibitor, single point]"
14,Cc1cc(NC(=O)Nc2ccc(F)cc2)no1,"inconclusive: 31.6 µM [quencher, side channel, single point]"
15,Cc1cccc(OCC2=NS(=O)(=O)c3ccccc3N2)c1,"inconclusive: 35.5 µM [inhibitor, single point]"
16,CCCc1nc2c(c(=O)c3ccccc3n2C)c(=O)n1C1CCCCCC1,"inconclusive: 5.01 µM [fluorescent, side channel, single point]"
17,C[C@H](NC(=O)c1nc[nH]c1C(=O)N[C@@H](C)c1ccccc1)C(=O)OC(C)(C)C,"inconclusive: 10 µM [fluorescent, side channel, partial curve]"
18,CCOc1ccccc1NC1=CC(=O)CC(c2ccccc2)C1 (configuration not stated),"inconclusive: 39.8 µM [inhibitor, single point]"
19,Clc1ccc(OCCCCN2CCCCC2)cc1,"inconclusive: 14.1 µM [inhibitor, single point]"

row,SMILES,Potency
1,Cc1ccc(S(=O)(=O)Nc2ccc(-c3nnc(SCC#N)n3C)cc2)cc1,inactive
2,O=C(CNC(=O)c1ccccc1)N/N=C/c1cn[nH]c1-c1ccccc1,"inconclusive: 39.8 µM [inhibitor, single point]"
3,CCOC(=O)c1[nH]c2ccccc2c1NC(=O)c1ccc(S(=O)(=O)N(C)C)cc1,"inconclusive: 25.1 µM [quencher, side channel, partial curve]"
4,COc1cc(C(=S)N2CCOCC2)cc(Br)c1OS(=O)(=O)c1ccccc1,"inconclusive: 25.1 µM [quencher, side channel, single point]"
5,Cc1ccc(S(=O)(=O)N2CCN(C(=O)c3ccccc3Cc3ccccc3)CC2)c(C)c1,"inconclusive: 2.82 µM [fluorescent, side channel, full curve, poor fit]"
6,Cc1ncc(CO)c(/C=N/NC(=S)Nc2ccc(Cl)c(Cl)c2)c1O,"inconclusive: 22.4 µM [quencher, side channel, partial curve]"
7,COc1ccc(C(=O)N2CCN(Cc3ccccc3C(F)(F)F)CC2)cc1,"inconclusive: 15.8 µM [fluorescent, side channel, partial curve]"
8,COc1ccc2c(c1)C(c1cccs1)=NNC(c1cccnc1)=N2,"inconclusive: 5.01 µM [inhibitor, partial curve]"
9,CCOC(=O)C1CSC(Cc2ccc(OCc3ccc([N+](=O)[O-])cc3)cc2)N1 (configuration not stated),"inconclusive: 8.91 µM [quencher, side channel, partial curve]"
10,O=C(/C=C/c1cccs1)Nc1nc(-c2ccccc2)cs1,"inconclusive: 11.2 µM [quencher, side channel, partial curve]"
11,N/C(=N\OC(=O)c1ccccc1Cl)c1ccncc1,"inconclusive: 17.8 µM [quencher, side channel, single point]"
12,Cc1cc(=O)n2c3ccccc3n(CC(O)CN3CCCC3)c2c1C#N (configuration not stated),"inconclusive: 28.2 µM [inhibitor, partial curve]"
13,CC1CCCC(C)N1CCCNC(=O)c1ccc2nc(N3CCOCC3)sc2c1 (configuration not stated),inactive
14,CC(=O)NC1CC2CCCC(C1)N2CC(=O)N1CCCc2ccccc21 (configuration not stated),"inconclusive: 44.7 µM [inhibitor, partial curve, poor fit]"
15,NC(=S)N/N=C\c1ccc(-c2cccc(Cl)c2Cl)o1,"inconclusive: 39.8 µM [quencher, side channel, single point]"
16,O=[N+]([O-])c1nn(-c2ccc3c(c2)OCCO3)n(O)c1=NCc1ccc(F)cc1Cl,"inconclusive: 22.4 µM [quencher, side channel, single point]"
17,CCC(O)(c1ccc(OC)cc1)C(CN1CCOCC1)c1ccccc1 (configuration not stated),"inconclusive: 39.8 µM [inhibitor, single point]"
18,Nc1ccc(Br)c2cccnc12,"inconclusive: 39.8 µM [quencher, side channel, single point]"
19,COc1ccc(C(O)(c2ccccc2OC)C(CN2CCOCC2)c2ccccc2)cc1 (configuration not stated),"inconclusive: 12.6 µM [fluorescent, side channel, partial curve]"

row,SMILES,Potency
1,O=C(CSc1nc(Nc2ccccc2)nc(N2CCOCC2)n1)Nc1ccc([N+](=O)[O-])cc1,"inconclusive: 3.55 µM [quencher, side channel, partial curve]"
2,CCn1c(/C=C/N(C(C)=O)c2ccccc2)[n+](CC)c2ccc(Cl)cc21,inactive
3,COc1ccc(NC(=O)CCS(=O)(=O)c2cccc3nonc23)cc1,inactive
4,COc1ccc(S(=O)(=O)N(C(=O)C(C)C)c2ccc3oc(=O)sc3c2)cc1,"inconclusive: 39.8 µM [quencher, side channel, single point]"
5,COc1cc(/C=N/N(c2ccccc2)c2ccccc2)ccc1O,"inconclusive: 11.2 µM [quencher, side channel, partial curve]"
6,Cc1ccc(C(C)(C)C)c(SCC(=O)Nc2nnc(C)s2)c1,"inconclusive: 14.1 µM [fluorescent, side channel, partial curve]"
7,COc1ccccc1OCC(=O)OC/C(O)=C(\C#N)c1nc2ccccc2[nH]1,"inconclusive: 8.91 µM [quencher, side channel, partial curve]"
8,CC(C)(C)n1nnnc1C(c1cccc(C#N)c1)N1CCN2CCCC2C1 (configuration not stated),"inconclusive: 0.631 µM [inhibitor, full curve, poor fit]"
9,S=C(NCCc1ccccc1)Nc1ccc(Nc2ccccc2)cc1,"inconclusive: 28.2 µM [quencher, side channel, partial curve]"
10,O=C(COc1ccccc1Br)c1ccc(O)cc1O,"inconclusive: 39.8 µM [quencher, side channel, single point]"
11,C[N+]1(C)[C@@H]2CC(OC(=O)C(O)(c3cccs3)c3cccs3)C[C@H]1[C@@H]1O[C@@H]12 (some centres not stated),inactive
12,CC(=O)c1ccc(OCC(O)CN2CCN(S(=O)(=O)c3c(C)c(C)cc(C)c3C)CC2)cc1 (configuration not stated),"inconclusive: 3.16 µM [fluorescent, side channel, full curve]"
13,O=C(NNC(=O)c1cc(-c2ccncc2)nc2ccccc12)Nc1ccc(F)cc1,"inconclusive: 25.1 µM [quencher, side channel, single point]"
14,COc1ccc(-c2cc(C(=O)NC(Cc3cc4ccccc4[nH]3)C(=O)O)c(C)o2)cc1OC (configuration not stated),"inconclusive: 25.1 µM [quencher, side channel, partial curve]"
15,O=C(NC1CC1)c1cc2cc(Br)ccc2s1,"inconclusive: 3.16 µM [inhibitor, partial curve]"
16,COc1ccccc1N=C1NC(=O)/C(=C/c2ccc(N(C)C)cc2)S1,"inconclusive: 35.5 µM [quencher, side channel, single point]"
17,CCOc1ccc(N=NC2C(=O)N(C(N)=S)N=C2C)cc1 (configuration not stated),"inconclusive: 28.2 µM [quencher, side channel, single point]"
18,O=C(CN1C(=O)NC2(CCCC2)C1=O)OCCOc1ccccc1,"inconclusive: 7.08 µM [quencher, side channel, single point]"
19,CC(=O)Nc1cccc(C(=O)N/N=C/c2cccc(C)n2)c1,"inconclusive: 0.708 µM [inhibitor, full curve, poor fit]"
